Several values for one entry are separate records, joined by “and”; a condition that tells them apart may be missing. Equal values may be shown once.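 These data come from cells grown in 96-well plates and exposed to compound for 48 hours at five concentrations. GI50 marks 50% less growth. TGI: total growth inhibition.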
test system: NCI-H322M lung; assay: NCI anticancer screen, dose series, 48 h

Compound | GI50 | TGI [µM]
C=C(C)[C@@H]1CC[C@]2(CO)CC[C@]3(C)[C@H](CC[C@@H]4[C@@]5(C)CCC(NCCc6ccc(O)cc6)C(C)(C)[C@@H]5CC[C@]43C)[C@@H]12 (stereo not given in full) | 1.45 µM | 2.81
NCCC(=O)N[C@@H](Cc1cc(O)c(O)c(SCC(NC(=O)CC[C@H](N)C(=O)O)C(=O)NCC(=O)O)c1)C(=O)O (stereo not given in full) |  | > 50
COc1ccc(OC)c(CC(C)N)c1 (stereo not given) |  | > 100
CC1=C[P+](Cc2ccccc2)(c2ccccc2)CC1 (stereo not given) | > 100 µM and 44.1 µM | > 100
COc1ccc(-c2cc(-c3ccc(O)cc3)nc3n[nH]c(N)c23)cc1 | 24.3 µM | > 100
COc1cc(S(=O)(=O)Nc2nc(-c3ccc(N4C(=O)/C(=C/c5ccccc5[N+](=O)[O-])N=C4c4ccccc4)cc3)cs2)ccc1Cl |  | > 100
Cc1cc(Oc2ccc3nc(COc4ccc(CC5SC(=O)NC5=O)cc4)n(C)c3c2)cc(C)c1N (stereo not given) | 49.2 µM | > 100
O=C(NCC(O)CNC(=O)C(F)(F)F)C(F)(F)F |  | > 100
COC(=O)c1ccc(Cl)cc1NC(=O)C1CCCCC1 |  | > 100
Clc1ccc(-c2ccc(-c3nn4c(CNc5ccccc5)nnc4s3)o2)c(Cl)c1 |  | > 100
COc1ccc(-c2c(-c3cc(OC)c(OC)c(OC)c3)noc2N)cc1 | 0.0684 µM | > 100
CN(C)CCCCN1c2ccccc2Sc2ccc(C(=O)c3ccccc3)cc21 |  | 5.96
C[Si](C)(OCCS(=O)(=O)O)OC(=C1S(=O)(=O)OCCOS1(=O)=O)c1cccc2ccccc12 |  | > 100
Cc1nn(C)cc1P(=S)(c1ccccc1)c1ccccc1 |  | > 100
COc1ccc(C=C(c2ccc(OCc3ccccc3)cc2)c2ccc(OCc3ccccc3)cc2)cc1 |  | > 100
C[C@H]1[C@H]2[C@H]3CC[C@@H]4[C@@]5(C)C/C(=C/c6cccnc6)C(=O)C(C)(C)[C@@H]5CC[C@@]4(C)[C@]3(C)CC[C@]23CO[C@]1(C)[C@@H](C(=O)/C=C\c1cccnc1)C3 | 2.12 µM | 8.84
CC1(C)CCC(C)(C)c2c1ccc(O)c2Cc1c(O)ccc2c1C(C)(C)CCC2(C)C |  | 5.89
CN(C)Cc1cc(C=O)cc(CN(C)C)c1O |  | > 100
CCOC(=O)c1ccc(Nc2nc3ccccc3nc2C(=O)OCC)cc1 |  | > 100
CCCCCCCCCCCCCCCCOCC(CCl)OP(=O)(O)OP(=O)(O)OCC1OC(n2ccc(N)nc2=O)C(O)C1O (stereo not given) |  | > 100
CC(=O)c1cccc(NC(=O)C(=O)Nn2c(N)nnc2N)c1 |  | > 100
SC1CCCN(Cc2ccccc2)C1 (stereo not given) |  | > 100
C#CCCCOc1ncccn1 |  | > 100
CCOc1ccc(NC(=O)C2=C(C)NC(C)=C(C(=O)Nc3ccc(OCC)cc3)C2c2ccccc2)cc1 |  | > 100

Compound | GI50 | TGI [µM]
O=[N+]([O-])c1cc(Cl)cc2cc(Br)cnc12 |  | > 31.6
CSCCOC(=O)C(=[N+]=[N-])c1ccc([N+](=O)[O-])cc1 |  | > 100
Cc1ccc2[nH]c3c(c2c1)C1CCC(C(C)(C)C)CC1C1C(=O)N(c2ccc4c(c2)OCO4)C(=O)C31 (stereo not given) |  | 15.2
CCCCCCCC(=O)OCC1OC(OC)C(NC(=O)N(CCCl)N=O)C(O)C1O (stereo not given) |  | 74.5
CCCCCCCCCCCCOC1C(C(CC(=O)N2CCN(c3cccc(C(F)(F)F)c3)CC2)NS(=O)(=O)c2cc(Cl)cc(Cl)c2)OC2OC(C)(C)OC21 (stereo not given) | > 100 µM | > 100
C/C(=N\NC(=S)N(C)CCN(C)C(=S)N/N=C(\C)c1ccccn1)c1ccccn1 |  | 15.4
CC(C)N1CN(C(C(=O)N[C@@H]2C(=O)N3C2SC(C)(C)C3C(=O)O)c2ccc(O)cc2)CSC1=S (stereo not given in full) |  | > 100
O=c1c2ccccc2c2ccccc2c(=O)n1Cc1ccc2c(c1)OCO2 |  | > 100
C=C(CN1CCN(c2cccc(C(F)(F)F)n2)CC1)c1ccc(C(=S)Nc2ccccc2N)cc1 | 5.75 µM | > 100
Cc1cc(C)nc(SCCc2cccc[n+]2C)n1 |  | > 100
N#Cc1nc(C(CO)N(Cc2ccccc2)C(=O)O)oc1N (stereo not given) |  | > 100
OCC1OC(n2cnc3c(Cl)nc(Cl)cc32)C(O)C1O (stereo not given) | > 100 µM | > 100
CCCCC(=O)OC[n+]1ccc2c(C)c3[nH]c4ccccc4c3c(C)c2c1 |  | 1.73
Cc1cc2c(c3oc(C4(C)OC4C4OC4C)cc(=O)c13)C(=O)c1c(O)c(C3CC(C)(N(C)C)C(O)C(C)O3)cc(C3CC(N(C)C)C(O)C(C)O3)c1C2=O (stereo not given) | 0.00265 µM and 0.000311 µM | 0.00899
CCC[CH2][Sn]1([CH2]CCC)[O]C(=O)c2ccc(C)cc2[O]1 | 1.48 µM | 2.82
COc1cnc2c(c1)C(=O)c1c-2n(CCCNC(C)C)c(=O)c2cc(F)ccc12 | 0.315 µM | 2.39
CC(C)=CCN1c2ccc(Cl)cc2NC(=O)CC1C (stereo not given) |  | > 100
C1=NCCNCCNCCN=Cc2ccccc2OCc2cccc(n2)COc2ccccc21 |  | > 100
CC/C(=C(/c1ccc(O)cc1)c1ccc(OCCN2CCCCC2)cc1)c1ccc(OC)cc1 | 2.58 µM | 11
CCCC(=O)O.CCCC(=O)O.CCCC(=O)O.CCCC(=O)O.[Rh].[Rh] | 0.807 µM | 2.52
Clc1cc(Br)c2c3c(c(Br)cc(Cl)c13)C(Br)=C2Br |  | > 100
O=C1C(Cl)C(c2cc3cc(Br)ccc3nc2Cl)N1c1ccc(Cl)cc1 (stereo not given) |  | 11.5
COc1cc2c(cc1OC)C(=O)Cc1ccc(OC)c(OC)c1CN(C)CC2 |  | > 100
COc1ccc(OC(C(=O)O)c2ccccc2)c2c1CCCC2=O (stereo not given) |  | > 100

Compound | GI50 | TGI [µM]
CSc1nc(SC)c2ncn(C3CC(Oc4ccc(C)cc4)C(COc4ccc(C)cc4)O3)c2n1 (stereo not given) |  | > 100
COc1ccc(CNc2nc3cc(N)cc(N)c3nc2-c2ccccc2)cc1 | 23 µM | 52
Cc1ccc(NC2=N/C(=C/c3ccccc3)C(Cl)=N2)cc1 |  | > 100
COc1c(C)cc2c(c1O)C1NC(C2)[C@H](O)N2C3COC(=O)[C@@]4(CS[C@@H](c5c(OC(C)=O)c(C)c6c(c53)OCO6)C12)NCCC1=C4NC2C=CC=CC12 (stereo not given in full) |  | < 0.01
C/C(=C\COc1c2c(cc3c1CCO3)OC1(C=C2)OC(CC/C(C)=C/COc2c3ccoc3cc3oc(=O)ccc23)C(C)(C)O1)CCC(O)C(C)(C)O (stereo not given) | > 100 µM | > 100
O=c1[nH]c(=O)n(C2CC(O)C(CO)O2)cc1OCC1CCCCC1 (stereo not given) |  | > 100
CN(CC(=O)O)c1ncc2c(n1)-c1ccccc1OC2 |  | > 100
O=C1c2ccccc2C(=O)N1C/C=C/CO |  | > 100
CNC(=O)Oc1cc(C)c(/C=C/c2cncc(C(=O)NC)c2)c(C)c1 | > 25 µM | > 25
COc1cc(/C=C\c2cccnc2)cc(OC)c1OC |  | > 100
Fc1cccc2c1cc1ccc3cccc4ccc2c1c34 |  | > 100
OC1C2CCC1C1C3C=CC(C3)C21 (stereo not given) |  | > 100
CC(C)(C)OC(=O)NC1CCC(C(C)(C)C)CC1 (stereo not given) |  | > 100
S=c1nc(Cl)cc2[nH]c(Cl)cn12 |  | > 100
CCOP(=O)(OCC)[C@H]1OC(C)(C)O[C@@H]1CO |  | > 100
c1ccc(CN=C(NCc2ccccc2)NCc2ccccc2)cc1 | 8.64 µM | 21.5
COC(=O)C1C2CC3C1C3C2C(=O)OC (stereo not given) |  | > 100
CCS(=O)(=O)Nc1cccc(Nc2c3cccc(C)c3nc3c(C)cccc23)c1OC | 9.05 µM | > 61.1
COc1cc(OC)c(NC(=O)c2cc3ccccc3cc2O)cc1Cl | 2.82 µM | 22.7
O=C(O)[C@@H]1NC[C@H]2C(Br)=NO[C@H]21 |  | > 100
CCOP(=O)(OCC)C(C(=O)OC)C(=O)C(=O)Nc1c(C)cc(Br)cc1C (stereo not given) |  | > 100
COc1ccccc1/C=C1\CCC(CCN2CCOCC2)C1=O (stereo not given) |  | > 100

— PubChem BioAssay (NCI)
